Reference: PubChem BioAssay AID588855 (National Center for Advancing Translational Sciences (NCATS), 2011)
The whole screen tested about 410,000 compounds, of which about 5,000 (1.2%) were called active. Inconclusive means that the source gave no clear call. Such entries were picked first, then a sample of the others. The call rests on the fitted dose curve; in most records, active means well fitted inhibition curve with a large enough effect; inconclusive means small, poorly fitted or top-dose-only effect; inactive means no such curve, though single readings can be large or run the other way. Potencies of inconclusive entries are doubtful fits and often do not repeat.

Assay: qHTS for Inhibitors of TGF-b; further: nearly all actives have a fitted effect of over 65% in size
Conditions: HepG2 CAGA-GFP TGF-b/SMAD3 reporter, GFP fluorescence, 18 h, TGF-beta stimulated, 500 pg/mL final; series mostly up to 46.1 µM
Method in brief: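 Inhibition of TGF-beta-driven CAGA-GFP reporter expression in HEPG2 cells is measured by cellular GFP fluorescence after 18 h stimulation with 500 pg/mL recombinant TGF-beta in 1% FBS medium at 37 degrees C.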
Potency means the concentration at half of the fitted maximal effect; tags describe the fitted curve by direction and shape.

For `Cc1ccc(NC(=O)c2nc[nH]c2C(=O)NCCCNC(=O)c2[nH]cnc2C(=O)Nc2ccc(C)cc2)cc1`, which Potency is on record?
Its Potency is inconclusive: 2 µM [inhibitor, full curve].

Which Potency does the source give for `Cc1cc2ccccc2c(=O)n1CC(=O)NCC(=O)N1CCN(c2ccccc2F)CC1` here?
The Potency was inconclusive: 3.16 µM [inhibitor, single point].

For `C/C(CC(=O)NCCCN1CCOCC1)=N\NC(=O)COc1cccc2ccccc12`, which Potency is on record?
Its Potency is inconclusive: 6.31 µM [inhibitor, single point].

For `CCc1ccccc1NC(=O)C1CCCN(C(=O)c2cnn(-c3ccccc3)c2-n2cccc2)C1` (configuration not stated), which Potency is on record?
The Potency was inconclusive: 17.8 µM [inhibitor, single point].

With `O=C(c1cccs1)N1CCN(Cc2ccccn2)CC1` as the compound, how does the Potency read?
The Potency was inconclusive: 35.5 µM [inhibitor, single point].

For `CCn1c(SCC(=O)Nc2cccc(NC(=O)c3ccco3)c2)nnc1-c1cccs1`, which Potency is on record?
The Potency was inconclusive: 5.62 µM [inhibitor, single point].

For `CSc1ccc(CN2CCC2(C)C(=O)Nc2cnc3ccccc3c2)cc1` (configuration not stated), which Potency is on record?
Its Potency is inconclusive: 31.6 µM [inhibitor, single point].

For `CCCCCCN1C[C@H](n2cc(-c3ccc(F)cc3)nn2)[C@@H](O)C[C@@H]1c1ccc(Cl)cc1`, which Potency is on record?
The Potency was active: 7.08 µM.

For `CN(C)CCNC(=O)c1cccc2[nH]c(-c3ccncc3)nc12`, which Potency is on record?
The Potency was active: 10 µM.

With `Cc1ccc(OCc2cc(C(=O)N3CCC(Oc4cccnc4)CC3)no2)cc1C` as the compound, how does the Potency read?
The Potency was inconclusive: 14.1 µM [inhibitor, single point].

For `COc1ccc(CCNC(=O)c2ccc3c(c2)ncn3-c2ccc(C)cc2C)cc1OC`, which Potency is on record?
The Potency was inconclusive: 35.5 µM [inhibitor, single point].

With `Oc1ccc(Nc2nc(-c3ccccc3O)nc3ccccc23)cc1` as the compound, how does the Potency read?
The Potency was inconclusive: 25.1 µM [inhibitor, single point].

For `CCOc1ccc(/C=N/NC2=NCCCCC2)cc1`, which Potency is on record?
Its Potency is “inactive”.

With `CCN(CC)CCNC(=O)c1ccc2c(=O)n3nc(Nc4ccccc4OC)sc3nc2c1` as the compound, how does the Potency read?
Its Potency is inconclusive: 35.5 µM [inhibitor, single point].

With `Cc1ccccc1NC(=O)Cc1nc(-c2c[nH]c(C(=O)N3CCCC3)c2)cs1` as the compound, how does the Potency read?
The Potency was inconclusive: 1.41 µM [inhibitor, partial curve, poor fit].

Which Potency does the source give for `CCc1nc2ccccc2c(C(=O)OCC(=O)Nc2cccc(S(=O)(=O)NC3=NCCCCC3)c2)c1C` here?
Its Potency is active: 11.2 µM.

For `COc1cccc(OC)c1C(=O)NN1CCCCC1`, which Potency is on record?
The Potency was inconclusive: 5.01 µM [inhibitor, partial curve].

With `CCOc1ccc(N(C)S(=O)(=O)c2ccc(C)c(C(=O)Nc3nnc(C4CC4)s3)c2)cc1` as the compound, how does the Potency read?
The Potency was “inactive”.

Which Potency does the source give for `Cc1ccc(C(=O)NCCCn2ccnc2)cc1[N+](=O)[O-]` here?
The Potency was “inactive”.

With `O=C(NCc1ccccc1CN1CCCC1)c1ccc(Cl)c(N2CCCC2=O)c1` as the compound, how does the Potency read?
The Potency was “inactive”.

With `CSCC[C@H](NC(=O)N1CCn2c1nc1ccccc12)C(=O)NCc1ccc2c(c1)OCO2` as the compound, how does the Potency read?
The Potency was inconclusive: 5.62 µM [inhibitor, single point].

Which Potency does the source give for `CC(C)CC(c1nnnn1Cc1ccccc1)N1CCN(C(=O)c2ccco2)CC1` (configuration not stated) here?
Its Potency is inconclusive: 3.55 µM [inhibitor, full curve, poor fit].

Which Potency does the source give for `COc1ccc(OCCCC(=O)NNC(=O)CCN2CCN(c3ccccc3)CC2)cc1` here?
The Potency was inconclusive: 7.94 µM [inhibitor, partial curve, poor fit].

Which Potency does the source give for `O=C(NCc1cc(C(F)(F)F)ccc1Cl)c1cccc2c1C(=O)c1ccc(N3CCC(N4CCCCC4)CC3)cc1S2(=O)=O` here?
Its Potency is inconclusive: 17.8 µM [inhibitor, single point].

Which Potency does the source give for `CCCCCCSc1ccc([C@H]2N[C@@](Cc3ccccc3)(C(=O)OC)[C@H]3C(=O)N(C)C(=O)[C@@H]23)cc1` here?
Its Potency is inconclusive: 17.8 µM [inhibitor, partial curve, poor fit].

With `COc1ccccc1N1CCN(CC(=O)Nc2ccccc2C(=O)NCCc2ccccc2)CC1` as the compound, how does the Potency read?
Its Potency is inconclusive: 28.2 µM [inhibitor, single point].

With `Cc1ccc2nc(CSc3nc(C)nc4c3oc3ccccc34)[nH]c2c1` as the compound, how does the Potency read?
Its Potency is inconclusive: 35.5 µM [inhibitor, single point].

Which Potency does the source give for `COc1cc(NC(=O)CSc2ncccc2C(=O)OC(C)C)cc(OC)c1` here?
The Potency was inconclusive: 1.12 µM [inhibitor, full curve, poor fit].

For `Cc1cc(C(=O)NCc2ccccc2Cl)c2c(C)nn(-c3ccccc3)c2n1`, which Potency is on record?
Its Potency is “inactive”.

With `O=C(O)c1ccccc1S(=O)(=O)CC(=O)N1CCCCC1` as the compound, how does the Potency read?
Its Potency is “inactive”.

For `COc1ccc(-c2nc(SCCOc3ccccc3Cl)n3[nH]c(=O)cc3n2)cc1`, which Potency is on record?
Its Potency is inconclusive: 35.5 µM [inhibitor, single point].

With `CN1CCc2c(sc3nc(SCC(N)=O)n(-c4ccc(Cl)cc4)c(=O)c23)C1` as the compound, how does the Potency read?
The Potency was “inactive”.

Which Potency does the source give for `C/C(=N\Nc1ccc(Cl)c(C(=O)O)c1)c1cccc([N+](=O)[O-])c1` here?
The Potency was “inactive”.

Which Potency does the source give for `N#CC(=C1NC(=O)c2ccccc21)c1nc2ccccc2n1CCO` here?
The Potency was inconclusive: 35.5 µM [inhibitor, single point].

With `CCOc1ccccc1NC(=O)C1Cc2ccccc2CN1S(C)(=O)=O` (configuration not stated) as the compound, how does the Potency read?
Its Potency is inconclusive: 3.55 µM [inhibitor, single point].

For `O=C(C[C@H]1C/C=C\C[C@H](Cc2ccc(F)cc2)C(=O)O[C@@H](c2ccccc2)CNC1=O)N[C@@H](CO)Cc1ccccc1`, which Potency is on record?
The Potency was inconclusive: 0.708 µM [inhibitor, full curve, poor fit].

With `O=C(c1cccc(N2CCCC2=O)c1)N1CCN(c2ccc(F)cc2)CC1` as the compound, how does the Potency read?
Its Potency is “inactive”.

For `COc1ccc(-c2c(C)nc3c(-c4ccccn4)cnn3c2N)cc1`, which Potency is on record?
Its Potency is active: 11.2 µM.

Which Potency does the source give for `CCC(C)[C@H]1COCCS(=O)(=O)N1Cc1ccccc1F` (some centres not stated) here?
The Potency was inconclusive: 11.2 µM [inhibitor, partial curve].

Which Potency does the source give for `Cc1cccc(NC(=O)Nc2cnccn2)c1C` here?
Its Potency is “inactive”.

Which Potency does the source give for `Cc1ccc(S(=O)(=O)N2CCN(c3nc(-c4cccs4)nc(C)c3C)CC2)cc1` here?
Its Potency is “inactive”.

With `Cc1ccc([C@H]2C[C@H](O)[C@@H](n3cc(C4CC4)nn3)CN2CC2CCCCC2)cc1` as the compound, how does the Potency read?
Its Potency is inconclusive: 22.4 µM [inhibitor, single point].

Which Potency does the source give for `O=C(Cc1ccc(F)cc1)Nc1nc(-c2ccc(F)c(F)c2)cs1` here?
Its Potency is inconclusive: 11.2 µM [inhibitor, partial curve].

For `Fc1ccc(-c2nc3c4ccccc4ccn3c2Cc2ccccc2C(F)(F)F)cc1`, which Potency is on record?
Its Potency is inconclusive: 8.91 µM [inhibitor, partial curve, poor fit].

For `CC(C)(C)c1ccc(-c2nc(NC(=O)CSc3ncnc4sc5c(c34)CCCC5)ns2)cc1`, which Potency is on record?
Its Potency is “inactive”.

For `CCCCc1ccc(NS(=O)(=O)c2cccs2)cc1`, which Potency is on record?
The Potency was inconclusive: 35.5 µM [inhibitor, single point].

With `Cc1cccc(NC(=O)CSc2nc3ccc(NC(=O)c4ccccc4)cc3s2)c1` as the compound, how does the Potency read?
The Potency was inconclusive: 0.1 µM [inhibitor, full curve, poor fit].

With `CC(=O)N1c2ccc(S(=O)(=O)N3CCCCCC3)cc2CC1C(=O)NCc1cccc(C)c1` (configuration not stated) as the compound, how does the Potency read?
Its Potency is inconclusive: 0.112 µM [inhibitor, full curve, poor fit].

With `CCc1ccc(-c2nc(CSCC(=O)NCc3ccco3)c(C)o2)cc1` as the compound, how does the Potency read?
The Potency was inconclusive: 35.5 µM [inhibitor, single point].

Which Potency does the source give for `Cc1ccc(CNc2nnc(C)c3nnn(Cc4ccc(F)cc4)c23)cc1` here?
The Potency was “inactive”.

With `Cc1ccc(-c2ccc(/C=N/c3ncn[nH]3)o2)cc1Cl` as the compound, how does the Potency read?
Its Potency is inconclusive: 20 µM [inhibitor, single point].

For `CC(C)Cc1cc(C(=O)NCc2cccs2)no1`, which Potency is on record?
The Potency was “inactive”.

For `CCC(=O)OCCNc1cc(Sc2nc3ccccc3s2)c2nonc2c1[N+](=O)[O-]`, which Potency is on record?
The Potency was active: 7.94 µM.

With `COc1cccc(C(C(=O)NC2CCCC2)N(CCC(C)C)C(=O)CCC(=O)Nc2cc(C)on2)c1` (configuration not stated) as the compound, how does the Potency read?
Its Potency is inconclusive: 0.708 µM [inhibitor, full curve].

With `Cc1ccccc1Cn1c(SCc2ccc(C(=O)NC3CCCCC3)cc2)nc2ccncc21` as the compound, how does the Potency read?
Its Potency is inconclusive: 2.51 µM [inhibitor, full curve].

For `Cc1nn(C)cc1CN1CCC(n2nccc2NC(=O)CCCc2ccccc2)CC1`, which Potency is on record?
Its Potency is “inactive”.

Which Potency does the source give for `O=C(Nc1nc2c(s1)CCCC2=O)c1cnccn1` here?
Its Potency is inconclusive: 5.62 µM [inhibitor, single point].

For `O=C(NC1CCCCC1)[C@H](CSCc1ccccc1)N1Cc2ccccc2C1=O`, which Potency is on record?
The Potency was inconclusive: 0.398 µM [inhibitor, partial curve, poor fit].

For `CC(C)N(Cc1nc(-c2ccc(Cl)cc2)no1)C(=O)c1ccc(C(C)(C)C)cc1`, which Potency is on record?
The Potency was inconclusive: 15.8 µM [inhibitor, single point].

Which Potency does the source give for `C/C(=N\Nc1cc(N2CCOCC2)ncn1)c1ccc(O)cc1` here?
Its Potency is “inactive”.

Which Potency does the source give for `C/C(=N\NC(=O)c1cc(C)nc2ccccc12)c1ccco1` here?
The Potency was “inactive”.

Which Potency does the source give for `O=C(c1ccc(COc2ccccc2Cl)o1)N1CCN(c2ccccc2)CC1` here?
Its Potency is “inactive”.

For `CCOc1ccc(CC(=O)NCCc2sc3nc(-c4ccc(F)cc4)nn3c2C)cc1`, which Potency is on record?
The Potency was inconclusive: 35.5 µM [inhibitor, single point].

With `CSc1nc(Nc2ccc(F)cc2)cc(-c2ccccc2)n1` as the compound, how does the Potency read?
Its Potency is inconclusive: 35.5 µM [inhibitor, single point].

With `CCOc1ccc(-c2nn(-c3ccccc3)cc2C2NC(=O)NC(C)=C2C(=O)OC(C)C)cc1` (configuration not stated) as the compound, how does the Potency read?
Its Potency is inconclusive: 35.5 µM [inhibitor, single point].

For `CC(C)OC(=O)NC(C)(C)COC(=O)Nc1cccc(Cl)c1`, which Potency is on record?
Its Potency is “inactive”.

Which Potency does the source give for `Cc1ccc(C2c3sc(=O)[nH]c3SC3C4CC(C5C(=O)N(C(C)C(=O)O)C(=O)C45)C23)cc1` (configuration not stated) here?
Its Potency is inconclusive: 0.891 µM [inhibitor, full curve, poor fit].
